Laboratory results: a collection of fitness landscapes (doi:10.1016/j.celrep.2020.107928)
In all, about 81,000 sequences were measured (“one-hybrid fitness for binding parS DNA”: median about -0.17, highest 2% from about 0.51 on). Some of the results follow.

B1: Caulobacter ParB omega fusion; a variant is named by its letters at X, in order, B8GW30 (parent)
chain: MESVVVGEPGMSEGRRGLGRGLSALLGEVDAAPAQAPGEQLGGSREAPIEILQRNPDQPRRTFREEDLEDLSNSIREKGVLQPILVRPSPDTAGEYQIVAGERAWRAAQRAGLKTVPIMVRELDDLAVLEIGIIENVQRADLNVLEEALSYKVLMEKFERTQENIAQTIGKSXSHVANXMRLLXLPDEVQSYLVSGELTAXHARAIAAAADPVALAKQIIEGGLSVRETEALARKAPNLSAGKSKGGRPPRVKDTDTQALESDLSSVLGLDVSIDHRGSTGTLTITYATLEQLDDLCNRLTRGI

Variants of: B1
Assay: one-hybrid fitness for binding parS DNA (scaled: cognate 1, non-cognate 0); higher = stronger binding
Settings: with parS DNA site
How it was run: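 Fitness here means the log change in variant-to-wild-type read ratio between plasmids sequenced before and after selection. That scale was set so cognate equals 1 and non-cognate equals 0. The selection was a bacterial one-hybrid screen of Caulobacter ParB libraries, four specificity codons randomised, in E. coli USO carrying a HIS3 reporter with the site 19 bp from the promoter, grown 48 hours at 37°C on M9-minus-histidine with 0.1 mM IPTG and 5 mM 3-AT.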

Variant | one-hybrid fitness for binding parS DNA
DAAS | ≤ 0.2
HASS | ≤ 0.2
DNNW | ≤ 0.2
SDGE | ≤ 0.2
LVKT | ≤ 0.2
KGNT | ≤ 0.2
TKWA | ≤ 0.2
VSSD | ≤ 0.2
LDCV | ≤ 0.2
YHVG | ≤ 0.2
SANK | ≤ 0.2
PRQV | ≤ 0.2
LWSV | ≤ 0.2
RTHT | 0.908
QPPC | ≤ 0.2
YPSW | ≤ 0.2
DMKG | ≤ 0.2
KQKR | ≤ 0.2
SPSS | ≤ 0.2
MCIR | ≤ 0.2
NSVS | ≤ 0.2
CQMS | ≤ 0.2
KKFD | ≤ 0.2
ELKG | ≤ 0.2

Variant | one-hybrid fitness for binding parS DNA
RRDP | ≤ 0.2
KGNG | ≤ 0.2
PKLS | ≤ 0.2
LTEE | ≤ 0.2
EAQT | ≤ 0.2
PDES | ≤ 0.2
WYTL | ≤ 0.2
SKNK | ≤ 0.2
QPYV | ≤ 0.2
YCND | ≤ 0.2
PLAT | ≤ 0.2
DCGR | ≤ 0.2
HEKR | ≤ 0.2
QQQV | ≤ 0.2
DDNM | ≤ 0.2
TKWD | ≤ 0.2
PQYT | ≤ 0.2
KVNT | ≤ 0.2
VQIV | ≤ 0.2
KDMD | ≤ 0.2
GGPL | ≤ 0.2
SHYT | ≤ 0.2
NKHL | ≤ 0.2
MKRC | ≤ 0.2

Variant | one-hybrid fitness for binding parS DNA
TPMS | ≤ 0.2
HSAT | ≤ 0.2
GHMC | ≤ 0.2
GRDF | ≤ 0.2
AMHL | ≤ 0.2
EKMG | ≤ 0.2
VTAY | ≤ 0.2
SCHV | ≤ 0.2
PSTT | ≤ 0.2
GNAD | ≤ 0.2
SGLS | ≤ 0.2
WSAM | ≤ 0.2
MIHC | ≤ 0.2
CSYG | ≤ 0.2
PTWM | ≤ 0.2
HMWR | ≤ 0.2
KSFG | ≤ 0.2
AFLI | ≤ 0.2
CQTM | ≤ 0.2
AFFR | ≤ 0.2
NRTY | ≤ 0.2
TQAW | ≤ 0.2
QVWN | ≤ 0.2
KMTT | ≤ 0.2

Variant | one-hybrid fitness for binding parS DNA
VAMY | ≤ 0.2
DAYG | ≤ 0.2
YMDY | ≤ 0.2
SGCT | ≤ 0.2
AYLN | ≤ 0.2
LIHT | ≤ 0.2
CGNY | ≤ 0.2
IQWG | ≤ 0.2
QHGG | ≤ 0.2
PLTV | ≤ 0.2
NPDT | ≤ 0.2
PHGN | ≤ 0.2
TERT | ≤ 0.2
HISV | ≤ 0.2
IMRR | ≤ 0.2
HTVE | ≤ 0.2
RLFT | 0.838
TVQT | ≤ 0.2
CRRN | ≤ 0.2
DFSR | ≤ 0.2
REDT | ≤ 0.2
TFGT | ≤ 0.2
DHGV | ≤ 0.2
YTFY | ≤ 0.2

Variant | one-hybrid fitness for binding parS DNA
IDSN | ≤ 0.2
RTTC | 0.991
TNKF | ≤ 0.2
CSCR | ≤ 0.2
TPHW | ≤ 0.2
RVDY | 0.427
VLSM | ≤ 0.2
LYPI | ≤ 0.2
TNHP | ≤ 0.2
MRHT | ≤ 0.2
NNTE | ≤ 0.2
RRLH | ≤ 0.2
YPAS | ≤ 0.2
HNIG | ≤ 0.2
PCLW | ≤ 0.2
TMTI | ≤ 0.2
WMNG | ≤ 0.2
DKHG | ≤ 0.2
FLKS | ≤ 0.2
LPSD | ≤ 0.2
CNRR | ≤ 0.2
SLTM | ≤ 0.2
PDHD | ≤ 0.2
KNCI | ≤ 0.2

Variant | one-hybrid fitness for binding parS DNA
WVER | ≤ 0.2
WPAG | ≤ 0.2
MVNR | ≤ 0.2
RSHM | 0.324
NGLE | ≤ 0.2
HALS | ≤ 0.2
WCTM | ≤ 0.2
TSTI | ≤ 0.2
SRLN | ≤ 0.2
PSTF | ≤ 0.2
MKKL | ≤ 0.2
DPAC | ≤ 0.2
TNER | ≤ 0.2
LQNC | ≤ 0.2
EHVS | ≤ 0.2
LYYG | ≤ 0.2
SLPL | ≤ 0.2
RQIH | ≤ 0.2
LEIR | ≤ 0.2
IGAG | ≤ 0.2
PKMC | ≤ 0.2
CFDG | ≤ 0.2
PESL | ≤ 0.2
RWEW | ≤ 0.2

Variant | one-hybrid fitness for binding parS DNA
RYCF | ≤ 0.2
IRSV | ≤ 0.2
LYQS | ≤ 0.2
ILAI | ≤ 0.2
GIPT | ≤ 0.2
RQIF | ≤ 0.2
KETM | ≤ 0.2
QFKV | ≤ 0.2
TAML | ≤ 0.2
ENQG | ≤ 0.2
VPGG | ≤ 0.2
EMTR | ≤ 0.2
ATTT | ≤ 0.2
FKMG | ≤ 0.2
SDNC | ≤ 0.2
MALC | ≤ 0.2
MHTL | ≤ 0.2
VMPE | ≤ 0.2
ADRH | ≤ 0.2
QKRQ | ≤ 0.2
DEQS | ≤ 0.2
SIAT | ≤ 0.2
HTAL | ≤ 0.2
PHND | ≤ 0.2

Variant | one-hybrid fitness for binding parS DNA
YRNS | 0.291
SWWR | ≤ 0.2
FNEG | ≤ 0.2
VPPM | ≤ 0.2
GGNW | ≤ 0.2
CIDR | ≤ 0.2
GWLT | ≤ 0.2
QNNF | ≤ 0.2
QADF | ≤ 0.2
SYYR | ≤ 0.2
NATL | ≤ 0.2
SATH | ≤ 0.2
QQLQ | ≤ 0.2
QNEQ | ≤ 0.2
LHYN | ≤ 0.2
DWLT | ≤ 0.2
FAHL | ≤ 0.2
SGPN | ≤ 0.2
VRCT | ≤ 0.2
PEHA | ≤ 0.2
EDSC | ≤ 0.2
RPQY | ≤ 0.2
TRPT | ≤ 0.2
LHSI | ≤ 0.2

Variant | one-hybrid fitness for binding parS DNA
QYSD | ≤ 0.2
PENN | ≤ 0.2
NHQS | ≤ 0.2
WEHP | ≤ 0.2
PRCG | ≤ 0.2
RLLF | 0.274
QTPH | ≤ 0.2
TNHN | ≤ 0.2
AYID | ≤ 0.2
KGVS | ≤ 0.2
VLFD | ≤ 0.2
LQSS | ≤ 0.2
HVQD | ≤ 0.2
SQWD | ≤ 0.2
DAGA | ≤ 0.2
RIEL | ≤ 0.2
HGSR | ≤ 0.2
INYL | ≤ 0.2
EDVS | ≤ 0.2
VFPS | ≤ 0.2
PPLY | ≤ 0.2
RSRW | 0.237
VRGR | ≤ 0.2
AVDV | ≤ 0.2

Variant | one-hybrid fitness for binding parS DNA
PQLR | ≤ 0.2
HLKT | ≤ 0.2
VYDG | ≤ 0.2
DIAA | ≤ 0.2
DCYR | ≤ 0.2
LPEM | ≤ 0.2
QKVI | ≤ 0.2
TWLG | ≤ 0.2
TTNY | ≤ 0.2
MNQS | ≤ 0.2
QHCF | ≤ 0.2
RHLF | 0.23
AEVF | ≤ 0.2
NEYT | ≤ 0.2
HWTM | ≤ 0.2
ISER | ≤ 0.2
TRSH | ≤ 0.2
YGRT | ≤ 0.2
SFPF | ≤ 0.2
SMFS | ≤ 0.2
PNYL | ≤ 0.2
KHTM | ≤ 0.2
RRTR | ≤ 0.2
WMLV | ≤ 0.2

Variant | one-hybrid fitness for binding parS DNA
DGWA | ≤ 0.2
ACMS | ≤ 0.2
ENNE | ≤ 0.2
KIYL | ≤ 0.2
SSAH | ≤ 0.2
GAEG | ≤ 0.2
FLGT | ≤ 0.2
PMYG | ≤ 0.2
GQPG | ≤ 0.2
QSYW | ≤ 0.2
NSCM | ≤ 0.2
FDQT | ≤ 0.2
QPHA | ≤ 0.2
RLRS | 0.875
YWYR | ≤ 0.2
WDPK | ≤ 0.2
WCDG | ≤ 0.2
LLPM | ≤ 0.2
LYWR | ≤ 0.2
WHSG | ≤ 0.2
SFDV | ≤ 0.2
QCQG | ≤ 0.2
LRSI | ≤ 0.2
PPVW | ≤ 0.2

Variant | one-hybrid fitness for binding parS DNA
MLHS | ≤ 0.2
DPTK | ≤ 0.2
MTVF | ≤ 0.2
WRCG | ≤ 0.2
RGMI | ≤ 0.2
WTFC | ≤ 0.2
LMTN | ≤ 0.2
YMMT | ≤ 0.2
AEDF | ≤ 0.2
NKVT | ≤ 0.2
QQSW | ≤ 0.2
VKHG | ≤ 0.2
LVCT | ≤ 0.2
PDLA | ≤ 0.2
DGYG | ≤ 0.2
DEDG | ≤ 0.2
GNIV | ≤ 0.2
AMFC | ≤ 0.2
LYHF | ≤ 0.2
ANPD | ≤ 0.2
RDVI | ≤ 0.2
HMSI | ≤ 0.2
PDQS | ≤ 0.2
PNNA | ≤ 0.2

Variant | one-hybrid fitness for binding parS DNA
FYPT | ≤ 0.2
SIVA | ≤ 0.2
QFYG | ≤ 0.2
SLTT | ≤ 0.2
HSMW | ≤ 0.2
NRGT | ≤ 0.2
STSK | ≤ 0.2
ELNC | ≤ 0.2
TSRK | ≤ 0.2
DLHT | ≤ 0.2
SRSI | ≤ 0.2
YTES | ≤ 0.2
VCHC | ≤ 0.2
INSL | ≤ 0.2
VDVI | ≤ 0.2
LDER | ≤ 0.2
LSDT | ≤ 0.2
NRGK | ≤ 0.2
